In the supplement of paper PMC4604168 (melanoma cell lines):
Some of the results follow. Most values come without repeats; read them as rough.

Tests used:
Assay in all cases: cell count relative to DMSO control; melanoma cells; higher = more viable cells
Details in all cases: library dose: standard library concentration; 72 h
SkMel28 = system: SkMel28
SkMel2 = system: SkMel2
SkMel30 = system: SkMel30
SkMel5 = system: SkMel5
UACC257 = system: UACC257
UACC62 = system: UACC62
WM115 = system: WM115
WM1716 = system: WM1716
WM1745 = system: WM1745
WM3526 = system: WM3526
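Note: cells treated in 1,536-well plates, then fixed and DAPI-stained, with nuclei counted from automated high-throughput microscope images.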

SMILES	cell count (SkMel28)	cell count (SkMel2)	cell count (SkMel30)	cell count (SkMel5)	cell count (UACC257)	cell count (UACC62)	cell count (WM115)	cell count (WM1716)	cell count (WM1745)	cell count (WM3526)
Oc1nc(-c2ccc(C(F)(F)F)cc2)nc2c1CSCC2 + O=C(Oc1ccc([N+](=O)[O-])cc1)N1CCC(C(O)(c2ccc3c(c2)OCO3)c2ccc3c(c2)OCO3)CC1 [JZL184] (first compound 10 µM, partner dose 5 µM)	121%	97.6%	83.2%	70%	91.6%	84.1%	92.7%	84.2%	76.4%	101%
Oc1cc(-c2nc(-c3ccccc3)[nH]c2-c2ccncc2)ccc1Cl + C/C(O)=C(\C#N)C(=O)Nc1cc(Br)ccc1Br [LFM-A13] (first compound 1 µM, partner dose 10 µM)	35.9%	38.7%	84.1%	64.8%	101%	64.5%	48.1%	78%	65.1%	49.9%
CC(C)C[C@H](NC(=O)[C@H](Cc1ccccc1)NC(=O)c1cnccn1)B(O)O [Bortezomib] + C/C(O)=C(\C#N)C(=O)Nc1cc(Br)ccc1Br [LFM-A13] (first compound 0.005 µM, partner dose 10 µM)	32.4%	53.7%	40.2%	43.9%	89%	69.7%	30.2%	26.9%		32.1%
CN1CCN(c2ccc3nc(-c4c(N)c5c(F)cccc5[nH]c4=O)[nH]c3c2)CC1 [Dovitinib] + C/C(O)=C(\C#N)C(=O)Nc1cc(Br)ccc1Br [LFM-A13] (first compound 0.5 µM, partner dose 10 µM)	36.4%	52.9%	85.1%	73%	74%	59.7%	67.3%	73%		71.7%
C=CCn1c(=O)c2cnc(Nc3ccc(N4CCN(C)CC4)cc3)nc2n1-c1cccc(C(C)(C)O)n1 + C/C(O)=C(\C#N)C(=O)Nc1cc(Br)ccc1Br [LFM-A13] (first compound 0.1 µM, partner dose 10 µM)	40.1%	83.7%	70.1%	51.8%	92.8%	53.4%	70.9%	91.8%	50%	69.2%
Nc1ccn([C@@H]2O[C@H](CO)[C@@H](O)C2(F)F)c(=O)n1 [gemcitabine] + C/C(O)=C(\C#N)C(=O)Nc1cc(Br)ccc1Br [LFM-A13] (first compound 0.002 µM, partner dose 10 µM)	82.6%	91.6%	78.8%	88.4%	106%	112%	94.3%	75.7%		95.2%
Clc1ccc(Nc2nnc(Cc3ccncc3)c3ccccc23)cc1 [vatalanib] + Cc1cc(SCc2sc(-c3ccc(C(F)(F)F)c(F)c3)nc2C)ccc1OCC(=O)O [GW0742] (first compound 10 µM, partner dose 10 µM)	77.2%	79.6%	95.4%	70.3%	80.7%	79.3%	89.6%	90.4%		71%
Cc1nc(Nc2ncc(C(=O)Nc3c(C)cccc3Cl)s2)cc(N2CCN(CCO)CC2)n1 [dasatanib] + O=C(Oc1ccc([N+](=O)[O-])cc1)N1CCC(C(O)(c2ccc3c(c2)OCO3)c2ccc3c(c2)OCO3)CC1 [JZL184] (first compound 0.02 µM, partner dose 5 µM)	102%	91.6%	83.2%	42.4%	88.3%	80.4%	61.6%	40.8%	38.5%	80.1%
Clc1ccc(Nc2nnc(Cc3ccncc3)c3ccccc23)cc1 [vatalanib] + C/C(O)=C(\C#N)C(=O)Nc1cc(Br)ccc1Br [LFM-A13] (first compound 10 µM, partner dose 10 µM)	78.7%	83.3%	91.4%	55.9%	78.8%	86.8%	65.8%	84.1%		73.5%
Nc1ccn([C@@H]2O[C@H](CO)[C@@H](O)C2(F)F)c(=O)n1 [gemcitabine] + O=C(Oc1ccc([N+](=O)[O-])cc1)N1CCC(C(O)(c2ccc3c(c2)OCO3)c2ccc3c(c2)OCO3)CC1 [JZL184] (first compound 0.002 µM, partner dose 5 µM)	124%	113%	105%	88.8%	99.9%	60.4%	83.7%	70.3%		84.4%
